This passage reports activation results from PubChem BioAssay AID1346428 (National Center for Advancing Translational Sciences (NCATS), 2018).

Molecules are shown by their SMILES. The campaign covered roughly 48,000 compounds. About 1,200 (2.5%) were called active. About 2% were inconclusive and are not listed.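 How the source made its calls: active means activation of at least 60% and not above a set upper limit (about 1 call in 100 departs from these limits); inconclusive means activation of 40% to 60%, or above that upper limit; inactive means activation under 40%.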 This is one part of the list.

Sequence of UniProt O75388 (O75388 whole entry, looked up): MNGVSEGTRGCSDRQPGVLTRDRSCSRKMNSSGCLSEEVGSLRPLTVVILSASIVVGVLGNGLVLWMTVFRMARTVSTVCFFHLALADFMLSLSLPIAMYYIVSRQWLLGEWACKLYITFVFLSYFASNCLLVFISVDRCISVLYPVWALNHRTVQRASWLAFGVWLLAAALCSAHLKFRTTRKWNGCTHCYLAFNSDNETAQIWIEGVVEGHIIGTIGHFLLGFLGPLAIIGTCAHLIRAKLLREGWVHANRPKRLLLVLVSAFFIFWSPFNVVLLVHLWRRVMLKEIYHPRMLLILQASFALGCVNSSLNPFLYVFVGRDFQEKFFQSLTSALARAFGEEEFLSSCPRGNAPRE

This assay addresses Probable G-protein coupled receptor 32 (Homo sapiens) (UniProt O75388). Nature of the assay: qHTS for Agonists of Human Resolvin D1 Receptor DRV1. Further: 0% is about no effect. Particulars: CHO-K1 GPR32 beta-arrestin PathHunter luminescence, 90 min; at 76.9 µM; hits give high values; zero percent set by DMSO-only wells. The method in brief:
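Step 1: seed CHO-K1 GPR32 beta-arrestin cells, 2,500/well, overnight at 37 °C. Step 2: add compounds, 90 min at 37 °C. Step 3: detection reagent, 1 h ambient, then luminescence.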
(In qHTS, concentration-response curves come from the screen itself.)
Consider `COC(=O)c1ccc(C2C(C(=O)Nc3ccccc3)=C(C)Nc3nc4ccccc4n32)cc1` (stereo not drawn), for which the activation is inactive: 3.05%. The value for `CC(=O)N1CCc2c(sc3nc(SCC(C)C)n(-c4ccc(F)c(Cl)c4)c(=O)c23)C1` was inactive: -21.5%. For `CCCSc1ncc(Cl)c(C(=O)Nc2c(C(=O)Nc3ccc(C)cc3)oc3ccccc23)n1` the value was inactive: -6.75%; for `CC1=C(C(=O)Nc2ccccc2)C(c2cccn2C)n2ncnc2N1` (stereo not drawn), inactive: -3.79%.

In the case of `Cc1ccc(Nc2nc(C)nc(N)c2S(=O)(=O)c2ccccc2)cc1`, the activation was inactive: 5.67%. For `CCN(CC)c1ccc(-c2nc(-c3ccccc3C)no2)cc1[N+](=O)[O-]` the value was inactive: -5.19%; for `O=C(NCCc1ccccc1Cl)c1ccc2c(c1)nc1n2CCCCC1`, inactive: -17.1%. The value for `COc1ccc(Cn2c(=O)c3oc4ccccc4c3n(CC(=O)Nc3ccc(F)cc3F)c2=O)cc1` was inactive: -14.4%; that for `Cc1cc(NC(=O)C2CCN(S(=O)(=O)c3ccc(Br)s3)CC2)ccc1Br` was active: 76.4%.

For the compound `Cc1ccc(Cl)cc1N1CCN(Cc2nnc(-c3ccc4c(c3)OCO4)o2)CC1`, the activation is inactive: -12.4%.

Turning to `O=S(=O)(c1ccc2nc(N3CCN(c4cccc(Cl)c4)CC3)ccc2c1)N1CCCCC1`, the activation is inactive: -20.8%. For `Cc1ccc(CNC(=O)CSc2n[nH]c(-c3ccc(F)cc3)n2)cc1` the value was inactive: -19.5%; for `O=C(Nc1cccc(Cl)c1)c1cc2c(=O)[nH]c3ccccc3c2s1`, inactive: -8.27%.

As for `Cc1cccc(N2CCN(C(=O)CCn3c(=O)c4cccn4c4cccnc43)CC2C)c1` (stereo not drawn), the activation was inactive: -1.62%. Turning to `COc1cccc(C(=O)Nc2cccc(-c3cn4c(C)csc4n3)c2)c1OC`, the activation was inactive: -3.75%. For `CC1(C)CCC2=C(O1)c1ccccc1C(=O)C2=O` the value was inactive: 34%; for `Cc1cccc(-c2nc3c4ccccc4nc(N4CCN(c5cc(C)ccc5C)CC4)n3n2)c1`, inactive: -3.35%.

`CCOc1ccc(-c2nn(CC(=O)NC3CCCC3)c3c2cnc2ccc(F)cc23)cc1`: the activation was inactive: 0.222%. As to `CCc1ccccc1NC(=O)c1cnc2sc(N3CCCC3)nn2c1=O`, the activation is inactive: 0.8%. For `Cc1nnc(N2CCCC(C(=O)NCCc3ccc(Cl)cc3)C2)c2nn(-c3ccccc3)c(C)c12` (stereo not drawn) the value was inactive: -6.22%; for `COc1cccc(N2CCN(C(=O)Cn3c(-c4cccs4)cc4ccccc43)CC2)c1`, inactive: -13.7%; for `CC(=O)OCC[N+](C)(C)C`, inactive: -1.75%. Consider `CC1=C(C(=O)Nc2ccc(C)cc2C)C(c2cccs2)n2nc(SCc3ccccc3Cl)nc2N1` (stereo not drawn), for which the activation was inactive: 18.6%. Take `CC(C)CCNC(=O)CN1N=C(c2ccc(Cl)cc2)CCC1=O`: the activation was inactive: -19.4%. As to `COc1ccc(CN2C(=O)c3ccccc3C2C(=O)NCCc2ccccc2)c(OC)c1` (stereo not drawn), the activation is inactive: -3.88%.

Take `O=c1oc2ccccc2cc1-c1cn2cc(Cc3ccc(Cl)cc3)sc2n1`: the activation is inactive: -6.72%. Turning to `CCN(Cc1ccccc1)C(=O)Cn1c(=O)n(-c2ccc(C)c(C)c2)c(=O)c2c(C)c(C)sc21`, the activation is inactive: -0.373%. Turning to `Cc1cn2c(=O)cc(COC(=O)COc3ccccc3C)nc2s1`, the activation is inactive: 11.6%. For `CCOC(=O)c1c(C)[nH]c(CCC(=O)NCc2ccc(N(C)C)cc2)c1C` the value was inactive: -14.2%.

Take `O=c1cc(-c2ccccc2)n2c(SCc3ccc(F)cc3)nnc2[nH]1`: the activation was inactive: -7.51%. The value for `CCn1cc(C(=O)N2CCN(c3ccccc3F)CC2)c(=O)c2cc(S(=O)(=O)N(C)C)ccc21` was inactive: -0.0706%; that for `COc1ccc(CNc2oc(-c3ccc(COc4ccccc4C)o3)nc2C#N)cc1` was inactive: -28.4%; that for `O=C(Nc1cccc(C(F)(F)F)c1)c1cc2ccc3cccnc3c2[nH]1` was inactive: 1.91%. With `Cc1ccc(-c2nc(C)c(CCNS(=O)(=O)c3ccc(F)c(C(F)(F)F)c3)s2)cc1`, the activation is active: 63.3%. For `O=C(NCCCN1CCN(c2ccc(F)cc2)CC1)c1ccc2nc(Cc3ccccc3)oc2c1` the value was inactive: 19.7%. For `CCOc1ccc(CN2CCc3nc(Nc4ccc(OC)cc4OC)ncc3C2)cc1` the value was inactive: -2.3%; for `CCN(CC)c1nc2ccccc2nc1C(=O)Nc1cccc(C(C)=O)c1`, inactive: -17.5%; for `COc1ccc(NC(=O)c2c(-c3ccc(C)cc3)nnc3ccccc23)c(OC)c1`, inactive: -25.9%.

In the case of `Cc1ccc2sc(NC(=O)c3ccc4c(c3)OCCO4)nc2c1C`, the activation is inactive: -16.2%. For `COc1ccc2c(c1)c1c(c(=O)n(-c3ccc(F)c(Cl)c3)c(=O)n1Cc1ccccc1C)n2C` the value was inactive: 23.6%; for `CCN(CC)CCCNC(=O)c1nn(C)c2c1CS(=O)(=O)c1ccccc1-2`, inactive: 1.39%. With `Cc1ccccc1Cn1c(CN2CCC(C(=O)NCCc3ccccc3)CC2)cc2ccccc21`, the activation was inactive: -48.3%. As for `CCC(=O)Nc1cccc(C(=O)OCc2cc(=O)n3nc(CC)sc3n2)c1`, the activation was inactive: -2.08%. The value for `COc1ccc2c(c1)c1c(c(=O)n(CCc3ccccc3)c(=O)n1Cc1ccc(F)cc1)n2C` was inactive: -11.9%. With `CCSC1=NC2(CCN(C(=O)NC3CCCCC3)CC2)N=C1c1ccc(Cl)cc1`, the activation is inactive: 8.72%. As to `O=[N+]([O-])c1ccc(/C=N\O)o1`, the activation was inactive: 22.5%. Consider `Cc1ccc(NC(=O)c2sc3nc4c(cc3c2N)CN(Cc2ccccc2)CC4)cc1`, for which the activation is active: 116%. The value for `Cc1oc2ncn(C)c(=O)c2c1C(=O)N1CCN(c2ccccc2F)CC1` was inactive: -7.61%; that for `CCc1nn(Cc2ccc(Cl)cc2)c(=O)c2cc3cc(C)ccc3n12` was inactive: -24.4%.

Turning to `Cc1cccc(NS(=O)(=O)c2ccc3c(c2)C(C)(C)C(=O)N3C)c1`, the activation is inactive: -2.65%. Consider `Fc1ccc(-c2noc3ncnc(NCCCN4CCN(c5ccccc5)CC4)c23)cc1`, for which the activation was inactive: 27.7%. `Cc1ccc2c(=O)cc(C(=O)Nc3sc4c(c3C(=O)NCc3cccnc3)CCCC4)oc2c1C`: the activation was inactive: -0.584%.

Consider `COc1ccc(Cn2ccc3nc(C)c(C(=O)NCc4ccc(F)cc4)cc3c2=O)cc1`, for which the activation is active: 62.5%. The value for `O=c1oc2c(CN3CCN(CCO)CC3)c(O)ccc2cc1-c1ccccc1` was inactive: 9.58%; that for `COc1ccc(C(=O)NCC(c2ccc(N(C)C)cc2)N2CCc3ccccc32)c(OC)c1` (stereo not drawn) was inactive: -31.2%.

`COc1cccc(NC(=O)CC2NCCNC2=O)c1` (stereo not drawn): the activation is inactive: -9.37%. The value for `Cc1ccc(NC(=O)CCc2c(C)nc3cc(-c4ccccc4)nn3c2C)cc1F` was inactive: 16.9%. The value for `COc1ccc(-c2nc3c(C#N)c[nH]n3c2NC2CCCC2)c(OC)c1` was inactive: -24%.

For `COc1ccc(S(=O)(=O)NCC(c2ccco2)N2CCOCC2)cc1OC` (stereo not drawn), the activation was inactive: 2.65%. In the case of `CCc1cc(C(=O)Nc2cnn(Cc3ccccc3C)c2)no1`, the activation is inactive: 18.3%. For `COc1ccc(CNC(=O)C2CCN(c3nc4ccccc4[nH]3)CC2)cc1OC` the value was inactive: -8.99%; for `O=C(Nc1sc2c(c1C(=O)NCC1CCCO1)CCC2)c1cc(=O)c2ccccc2o1` (stereo not drawn), inactive: -11.6%; for `CCCCCNC(=O)CCCCCn1c(=O)[nH]c2ccsc2c1=O`, inactive: 8.89%. For `COCCCNc1oc(-c2ccc(COc3ccc(Cl)cc3)o2)nc1C#N`, the activation was inactive: -4.32%.

With `COc1ccc(Cn2c(=O)c3oc4ccccc4c3n(Cc3ccc(Cl)cc3)c2=O)cc1`, the activation was inactive: -1.65%. For `OCCN1C[C@H](O)[C@@H](O)[C@H](O)[C@H]1CO` the value was inactive: -92.7%; for `CCOc1ccc(C2CC(=O)Nc3c2c(=O)nc(SCc2ccccc2C)n3C)cc1OC` (stereo not drawn), inactive: -14.6%. The value for `CCn1cc(C(=O)OCC(=O)Nc2cccc(C(C)=O)c2)c(=O)c2ccc(C)nc21` was inactive: 11%; that for `CCOC(=O)c1c(S(=O)(=O)N2CCCC(C(=O)Nc3cccc(C)n3)C2)c(C)n(C)c1C` (stereo not drawn) was inactive: 8.02%. For `Cc1cccn2c(=O)c3cc(C(=O)NC(C)c4ccccc4)c(=N)n(CCCO)c3nc12` (stereo not drawn) the value was inactive: -10.5%; for `Cc1ccc2c(=O)cc(C(=O)Nc3cccc(C(F)(F)F)c3)oc2c1C`, inactive: -13%; for `CCOC(=O)c1c(C)[nH]c(C)c1S(=O)(=O)N1CCCC(C(=O)N2CCN(c3ccccc3)CC2)C1` (stereo not drawn), inactive: 12.6%. Turning to `CCOCCc1nn2c(=O)cc(COC(=O)C3CCCCC3)nc2s1`, the activation was inactive: -5.04%.

`COC(=O)c1ccc(OCC2c3cc(OC)c(OC)cc3CCN2C(=O)c2ccc(F)cc2)cc1` (stereo not drawn): the activation is inactive: 21.5%. For `O=C(Cn1nnc(-c2ccccc2Cl)n1)Nc1ccc(Br)cc1`, the activation was inactive: 11%. Turning to `Cc1ccc(NC(=O)CSc2nnc3scc(-c4ccccc4)n23)cc1`, the activation was inactive: 13.4%. `CCOc1ccccc1CNC(=O)C1CCN(S(=O)(=O)c2ccc3c(ccn3C)c2)CC1`: the activation was inactive: 1.93%. In the case of `O=C(Cn1ncc2c([nH]c3ccccc32)c1=O)NCC1CCN(Cc2ccc(F)cc2)CC1`, the activation was inactive: -3.23%. For `COc1ccc(CN2CCN(c3ncnc4sc5c(c34)CC(C)CC5)CC2)cc1F` (stereo not drawn) the value was inactive: 1.5%.

Consider `CCOc1ccc(C(=O)NCCS(=O)(=O)N2CCN(c3ccccc3F)CC2)cc1OCC`, for which the activation is inactive: -7.47%. For the compound `Cc1cc(Cl)ccc1NC(=O)CN(c1ccccc1Br)S(C)(=O)=O`, the activation is inactive: 30.9%.

Regarding `COc1ccccc1N1CCN(CCCNC(=O)c2cnn(-c3ccccc3)c2C2CCN(C(=O)OC(C)(C)C)CC2)CC1`, the activation is inactive: -17%. `C[C@H]1O[C@@H](O[C@H]2CC[C@@]3(C)[C@H](CC[C@@H]4[C@@H]3C[C@@H](O)[C@]3(C)[C@@H](C5=CC(=O)OC5)CC[C@]43O)C2)C[C@H](O)[C@@H]1O[C@H]1C[C@H](O)[C@H](O[C@H]2C[C@H](O)[C@H](O[C@@H]3O[C@H](CO)[C@@H](O)[C@H](O)[C@H]3O)[C@@H](C)O2)[C@@H](C)O1`: the activation was active: 76.2%.
